Data from PubChem BioAssay AID1745845 (National Center for Advancing Translational Sciences (NCATS), 2022).
Values joined by “and” are separate entries in the source; they are usually repeats but may differ in a detail not shown here. Equal values may be shown once. Hit rate of the full screen: of about 360,000 compounds, about 2,600 (0.72%) were called active. The shares of active, inactive and inconclusive entries below differ from those in the screen. The call rests on the fitted dose curve; in most records, active means well fitted inhibition curve with a large enough effect; inconclusive means small, poorly fitted or top-dose-only effect; inactive means no such curve, though single readings can be large or run the other way. A potency beside an inconclusive call is a rough fit, not a confirmed value.

assay: Primary qHTS for Inhibitors of ATXN expression; conditions: HEK-293 ATXN2-luciferase reporter, luminescence, 24 h; activity change, negative = inhibition: at 57 µM (top of the series); further: nearly all actives have a fitted effect of over 55% in size
Method in brief: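 qHTS (up to 57 uM final) was run with 24 h compound exposure of reporter cells at 37 °C. Each well was multiplexed: SteadyGlo luminescence measured ATXN2-luciferase expression after a fluorogenic Gly-Phe-AFC viability readout (25 uM final).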
On the % scale 0 is the no-effect control and ±100 the full control effect; potency means the concentration at half of the fitted maximal effect; tags describe the fitted curve by direction and shape.

Potency, active:
Cc1oc2c(c1C(=O)c1ccccc1)C(=O)C(=O)c1ccccc1-2 3.55 µM, Cc1c(Cl)ccc2sc(N3CCN(C(=O)CS(=O)(=O)c4ccccc4)CC3)nc12 20 µM, CN(C)CCNC(=O)c1ccc2c(c1)N(Cc1c(F)cccc1Cl)C(=O)c1ccccc1S2 22.4 µM, CCOc1ccc(C(=O)C(CN2CCOCC2)c2ccccc2)cc1 (configuration not stated) 28.2 µM, CC1CCN(Cc2c(C(=O)N/N=C/c3cc(Cl)ccc3O)nnn2-c2nonc2N)CC1 2.24 µM

Potency, inconclusive:
Oc1ccc(-c2cnc(-c3ccc(O)cc3)nc2)cc1 39.8 µM [inhibitor, single point], COc1ccc(N2CCN(C3CCCN(S(=O)(=O)c4ccc(C)cc4C)C3)CC2)cc1 (configuration not stated) 10 µM [inhibitor, partial curve, poor fit], COc1ccccc1CNc1nc(NCCOc2ccccc2Cl)c2sccc2n1 22.4 µM [inhibitor, single point], CC(C)CNC(=O)c1cccc2c(-c3cccc(C(N)=O)c3)coc12 39.8 µM [inhibitor, single point], O=C(Nc1ccc(Br)cc1)c1cccc(S(=O)(=O)N2CCc3ccccc32)c1 8.91 µM [inhibitor, partial curve, poor fit], c1ccc2c(c1)CCN(c1ncnc3c1[nH]c1ccccc13)C2 20 µM [inhibitor, partial curve, poor fit], Nc1ccc(O)cc1C(=O)OCC(=O)c1ccc(C2CCCCC2)cc1 39.8 µM [inhibitor, single point], Cc1[nH]n(C2=NCCS2)c(=O)c1N=Nc1cccc(C(F)(F)F)c1 10 µM [inhibitor, partial curve], CCCCn1nnnc1C(c1cccc2ccccc12)N1CCN(C/C=C/c2ccccc2)CC1 (configuration not stated) 31.6 µM [inhibitor, single point], CC1(C)CC(N2CCN(c3ccccc3)CC2)=CC(=[N+]2CCCC2)C1 39.8 µM [inhibitor, single point], CCOc1cc(/C=C/c2nc3ccccc3s2)ccc1OCC(=O)N1CCOCC1 31.6 µM [inhibitor, single point], O=C(c1ccc(Cl)cc1)C(Cn1cncn1)C(Sc1ccccc1)c1ccccc1 (configuration not stated) 39.8 µM [inhibitor, partial curve, poor fit], O=C(N/N=C/c1ccc([N+](=O)[O-])o1)c1cc(-c2ccncc2)nc2ccccc12 8.91 µM [inhibitor, full curve, poor fit], O=c1[nH]cnc2c1ccn2C1OC(CO)C(O)C1O (configuration not stated) 39.8 µM [inhibitor, single point], Cc1cccc(-c2nc(C#N)c(N3CCC(C)CC3)o2)c1 22.4 µM [inhibitor, single point], COc1cc(/C=C(/C#N)c2nc3ccccc3[nH]2)ccc1Oc1ncccc1[N+](=O)[O-] 17.8 µM [inhibitor, partial curve, poor fit], CC(C)(C)NC(=O)C(c1ccc(-c2ccccc2)cc1)N(C[C@H]1CC[C@@H]([C@@H]2CC[C@H](CO)O2)O1)C(=O)c1cccc(Cl)c1 (some centres not stated) 39.8 µM [inhibitor, single point], CCn1nc2cc(C(=O)NCc3cc(C(F)(F)F)cc(C(F)(F)F)c3)ccc2c1OC 3.55 µM [inhibitor, partial curve, poor fit], COc1ccc(CCn2c(C)cc(C(=O)CCl)c2C)cc1OC 11.9 µM [inhibitor, single point], COc1ccc(-c2noc(CCC(=O)N3CCN(c4cccc(Cl)c4)CC3)n2)cc1 39.8 µM [inhibitor, single point], Cc1cccc(NC(=O)c2nc(S(=O)(=O)Cc3ccccc3)ncc2Cl)c1 39.8 µM [inhibitor, single point], c1ccc(-c2cc3c(N4CCN(c5ccccc5)CC4)ncnc3s2)cc1 33.6 µM [inhibitor, partial curve, poor fit], COc1ccc(C)cc1Nc1nc(N)c2cc(OC)c(OC)cc2n1 28.2 µM [inhibitor, single point] and 31.6 µM [inhibitor, single point], CCN1CCN(S(=O)(=O)c2ccc(Cl)c(C(=O)N(C)Cc3ccccc3)c2)CC1 6.31 µM [inhibitor, single point], COc1ccc(Cl)cc1Nc1nc(C)nc2c1oc1ccccc12 22.4 µM [inhibitor, partial curve], C=CC[C@@H](Cc1ccc(F)cc1)C(=O)OC[C@@H]1CCCN1C(=O)[C@@H](CC=C)CC(=O)N[C@@H](CO)Cc1ccccc1 35.5 µM [inhibitor, single point], CC(C)(C)c1ccc(CC(=O)N2CCC2(C)C(=O)Nc2cnc3ccccc3c2)cc1 (configuration not stated) 20 µM [inhibitor, partial curve], O=C(Nc1cc(Br)ccc1F)c1nc[nH]c1C(=O)NCc1ccccc1 39.8 µM [inhibitor, single point], CCCCC[C@H](C)N1C[C@H](COCc2ccccc2)Oc2cc(N3CC[C@H](N(C)C)C3)ccc2S1(=O)=O 39.8 µM [inhibitor, single point], CCOc1ccc(-n2c(SCC(=O)NCc3ccco3)nnc2-c2c[nH]c3ccccc23)cc1 26.7 µM [inhibitor, single point], C[C@@H]1CN([C@H](C)CO)C(=O)CCCn2nncc2CO[C@H]1CN(C)Cc1ccc(Oc2ccccc2)cc1 28.2 µM [inhibitor, partial curve, poor fit], CC(=O)c1ccc(N2CCN(c3ccc(C(F)(F)F)cn3)CC2)cc1 15.8 µM [inhibitor, partial curve, poor fit], O=Cc1ccc(-c2cccs2)s1 6.7 µM [inhibitor, partial curve, poor fit], CCC(c1ccc(O)c(O)c1)C(CC)c1ccc(O)c(O)c1 (configuration not stated) 28.2 µM [inhibitor, partial curve, poor fit], c1ccc(C(=NNc2nc3ccccc3s2)c2ccccn2)cc1 16.8 µM [inhibitor, partial curve, poor fit], CCOc1ccccc1NS(=O)(=O)c1ccc2oc(=O)c3ncn(C)c3c2c1 35.5 µM [inhibitor, single point], Clc1cccc(N=C2NN=C(c3ccc4c(c3)OCCO4)CS2)c1 39.8 µM [inhibitor, single point], O=C(CCl)N=c1sccn1Cc1ccccc1Cl 35.5 µM [inhibitor, single point], C=CC[n+]1c(-c2ccc(OC)c(OC)c2)csc1NNC(=O)Nc1ccccc1 20 µM [inhibitor, partial curve, poor fit], Cc1cc(C)c2sc(N(CCN(C)C)C(=O)CCS(=O)(=O)c3ccccc3)nc2c1 14.1 µM [inhibitor, partial curve]

Activity change, negative = inhibition, inconclusive:
COc1ccccc1CNC(=O)COC(=O)Cc1c(F)cccc1Cl -42.5% [inhibitor]

Activity change, negative = inhibition, inactive:
COc1ccc(CCC(=O)OCC(=O)Nc2ccccc2)cc1 31.9%, N/C(=N\OC(=O)c1ccoc1)c1ccc(Br)cc1 18.4%, O=C(CCCSc1ccc(Cl)cc1)Nc1ccccc1O -12.1%, O=C(c1cc2cc([N+](=O)[O-])ccc2oc1=O)N1CCOCC1 -6.95%, Cc1cc(NC(=S)N(CCN2CCCCC2)Cc2ccco2)ccc1Cl -6.25%, CCC1Oc2ccccc2N(CC(=O)NCCCN2CCN(Cc3ccccc3)CC2)C1=O (configuration not stated) -20.1%, CCCn1nnnc1NC(=O)COc1ccc(Br)cc1 -28.2%, CCn1cc2nc(SCc3cccc(C(F)(F)F)c3)n(Cc3ccc(C)cc3)c(=O)c2n1 -20.4%, CCN(CC)CCN1c2ccccc2Sc2ccccc21 -7.59%, O=C(Nc1ccc(Cl)cc1)N1CCC(c2nc(-c3ccccc3Cl)no2)CC1 -37.8%, CCCCN1C(=O)/C(=c2\sc3nc(=O)c(-c4ccccc4)nn3c2=O)c2ccccc21 1.74%, O=C(NC(=S)N1CCN(c2ccc([N+](=O)[O-])cc2)CC1)c1ccc(F)cc1 -19.4%, O=C(NCC1CCN(c2ccc(S(=O)(=O)N3CCOCC3)cc2)CC1)Nc1ccccc1 -15.3%, CCn1c(CNC(=O)c2ccc(Cl)cc2)nnc1SCC(=O)N1CCOCC1 5.71%, CCc1cccc(CC)c1NC(=O)COC(=O)CC1c2ccccc2CCN1S(=O)(=O)c1ccccc1 (configuration not stated) -8.5%, COc1cccc(NC(=O)CN(C)CC(=O)c2c(C)[nH]c3ccccc23)c1 -16.4%, Cc1ccn2cc(-c3cccc(NC(=O)c4cccs4)c3)nc2c1 14.2%, C=CCn1c(=S)[nH]c2nc3c(cc2c1=O)CCCC3 30.5%, Cc1ccc(Sc2ccc(N3CCCC(C(=O)Nc4ccc(F)cc4F)C3)nn2)cc1 (configuration not stated) 7.92%, Oc1[nH]c2ccc(Br)cc2c1N=Nc1ccc(F)cc1 19%, Cc1occc1C(=O)N1CCN(c2ccc(Cl)c(Cl)c2)CC1 -16.6%
